From the supplement of paper PMC3334620
The full ranking holds about 33,000 sequences; the median of “E-score (-0.5 to 0.5)” is about -0.036, and the highest 2% start at about 0.37. The list shows a part of the results.

What follows are sequences tested against T1, Yer064c (UniProt P40041) (assay: PBM E-score (8-mer binding enrichment) (E-score (-0.5 to 0.5)); higher = stronger / more preferred TF binding; most listed sequences are background and not binding sites). Conditions: protein concentration: 200 nM; construct: GST-full length.
T1 sequence: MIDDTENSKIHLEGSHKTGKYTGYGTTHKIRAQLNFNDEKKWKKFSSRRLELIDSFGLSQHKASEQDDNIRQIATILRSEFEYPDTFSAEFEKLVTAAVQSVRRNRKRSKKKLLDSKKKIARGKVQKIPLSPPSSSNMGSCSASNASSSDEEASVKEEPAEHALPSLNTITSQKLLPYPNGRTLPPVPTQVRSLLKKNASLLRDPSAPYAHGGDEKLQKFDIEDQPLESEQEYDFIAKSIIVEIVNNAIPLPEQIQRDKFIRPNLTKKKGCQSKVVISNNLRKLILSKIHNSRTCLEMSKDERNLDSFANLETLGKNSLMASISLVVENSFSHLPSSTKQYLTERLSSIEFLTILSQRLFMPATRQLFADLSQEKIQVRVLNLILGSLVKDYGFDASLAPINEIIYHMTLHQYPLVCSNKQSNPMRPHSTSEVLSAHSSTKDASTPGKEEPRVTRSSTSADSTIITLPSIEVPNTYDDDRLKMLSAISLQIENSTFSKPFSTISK
Protocol: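 Universal 'all 10-mer' protein binding microarrays (Agilent AMADID 015681) probed with GST-tagged S. cerevisiae TFs (full-length or DBD) made by in vitro transcription/translation (PURExpress), about 100-200 nM. Bound TF was detected with fluorescent anti-GST. Each ungapped 8-mer (which stands for itself and its reverse complement) is scored by the PBM enrichment score (E-score), a modified Wilcoxon-Mann-Whitney statistic from -0.5 to +0.5, computed with the Universal PBM Analysis Suite. Scale: above 0.35 generally sequence-specific binding.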

Row | Sequence | PBM E-score
1 | AGTTATAG | 0.0154
2 | AGCTCGAC | -0.0488
3 | CCCAGGCC | -0.233
4 | ATTACCTA | 0.0232
5 | ATATAGCC | 0.00163
6 | CGGGTAGC | -0.00885
7 | ACGTTTGA | 0.0754
8 | GCCAGAAC | -0.0316
9 | CTTGGCAC | 0.0718
10 | CTTGGCCA | -0.0768
11 | AGGAAGAA | -0.174
12 | AGCTTTAC | -0.167
13 | CGTTGACA | -0.104
14 | ACGGGGAC | -0.041
15 | GAAAGAAC | -0.0932
16 | CAGAGACG | -0.0947
17 | AGTGAGAG | -0.0545
18 | GCCCAGCA | -0.22
19 | ACCGCGGA | -0.112
20 | AGATAACC | -0.163
21 | ACTACCAA | 0.185
22 | CCCGCTCA | -0.162
23 | ATGGCCGG | -0.139
24 | AGAAGGAG | -0.217

Row | Sequence | PBM E-score
25 | AACGCCAA | -0.123
26 | GAGTGATA | 0.171
27 | GACTGGCA | -0.0577
28 | CAATTGGG | -0.23
29 | AGCAATCG | 0.046
30 | CTGGGCGC | -0.189
31 | AGGATTGA | 0.186
32 | AGAACCAA | -0.034
33 | ACCCAATC | 0.147
34 | CATTGTTA | 0.0828
35 | CTCTCTGA | 0.163
36 | CTAACCGA | 0.171
37 | CATTATGG | 0.0554
38 | CGCATGGA | -0.0991
39 | CCTTCGCG | 0.0306
40 | ATCTTGTC | -0.0414
41 | CATTCCAG | -0.0873
42 | GGAACCCA | 0.0605
43 | AGTGTGGC | -0.147
44 | ATGTGGCC | -0.207
45 | GATCGAGA | -0.00399
46 | CAAAACCG | 0.00174
47 | AAGCGAGG | -0.239
48 | CGGAATGA | 0.149

Row | Sequence | PBM E-score
49 | AGACAGAG | -0.123
50 | ATGCAGCC | -0.0746
51 | CGACACAC | 0.0958
52 | ATTGGTTC | 0.102
53 | ATTGCGCA | -0.0491
54 | ATACGGTC | -0.241
55 | GGACTCGA | 0.118
56 | TACCACGA | 0.018
57 | CGAAGCTC | -0.111
58 | ACACCACC | -0.0428
59 | GGCTTCTA | -0.281
60 | ATTCTGTG | 0.0508
61 | GCCATTCC | -0.0133
62 | TAACATAA | 0.149
63 | GACCGCTA | -0.124
64 | GAATGCTA | -0.277
65 | GGTATAAA | -0.132
66 | CCTTCATC | -0.17
67 | CGGCAACC | -0.197
68 | AGGGAAAT | -0.0315
69 | CAGTCTAC | 0.0229
70 | ACTACTTC | 0.149
71 | TGCTCTAA | -0.0473
72 | GATATATA | 0.0368

Row | Sequence | PBM E-score
73 | CGCTATGC | -0.24
74 | AGGCGCAG | -0.254
75 | ATGTTGCA | -0.0827
76 | AAAGGTCA | -0.00741
77 | GTGCCACA | -0.121
78 | AGCGACGA | 0.123
79 | TACCATAA | -0.112
80 | GGGACGAC | -0.02
81 | TACAATAA | 0.0752
82 | ATTGTCAC | -0.0262
83 | GCCCAATA | -0.302
84 | AGAGACCG | -0.32
85 | CCTAACCA | 0.0425
86 | TCACCAGA | -0.0218
87 | GGGTAGCA | -0.0568
88 | GGTCGTTA | 0.00527
89 | CCCCGCTA | -0.209
90 | CACTGCCC | -0.133
91 | AGGCGGCG | -0.194
92 | CATCCGAA | 0.123
93 | CGGCCGTC | -0.158
94 | AAAGCGGA | -0.211
